This is an account of results in the RNAGym collection of RNA variant scans (doi:10.1101/gad.245936.114).

Variants at the floor of the assay are shown more often than the library holds them.

B1: tRNA (parent)
chain: CUCUCGGUAGCCAAGUUGGUUUAAGGCGCAAGACUUUAAUUUAUCACUACGAAAUCUUGAGAUCGGGCGUUCGACUCGCCCCCGGGAGAUUUUUUCCUCGAGCAA

Variants of B1 are the subject of this series. Nature of the series: nonsense suppression (GFP-seq) (ratio to wild type); higher = more function; SUP4oc tRNA, yeast GFP reporter sort-seq. Summed up:
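Yeast carrying genome-integrated SUP4oc tRNA variants from a library with ~3% random mutations were grown in raffinose/galactose medium with 80 mg/L adenine. Each strain also carried a galactose-driven GFP ochre reporter and RFP. Cells were sorted into GFP/RFP bins, and each bin was Illumina-sequenced (phred ≥30). Nonsense suppression (GFPSEQ) is the bin median GFP/RFP, weighted by each variant's estimated cell share per bin, relative to wild-type SUP4oc; variants needed ≥100 reads and ≥30 cells.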
CUCUCGGUAGCCAGGUUGGUUUAAGGCGCAAGACUUUAAUUUAUCACUACGAAAUCUUUAGAUCGGGCGUUCGACUCGCCCCCGGGAGAUUUUUUCCUCGAGCAA [A14G G59U]: the nonsense suppression is not above 0.026.
For the variant CUCUCGGUAGCCCAGUUGGUUUAAGGCGCAAGACUUUAAUUUAUCACUACGAAAUCUGGUGAUCGGGCGUUCGACUCGCCCCCGGGAGAUUUUUUCCUCGAGCAA [A13C U58G A60U], the nonsense suppression is not above 0.026.
For the variant CUCUCGGUAGCCAAGUUGGUUUAAGGCGCAAGACUUUAAUUUAUCACUACGAAAUCUGGAGAUCGGGCGUUCGACUCGCACCCGGGAGAUUUUUUCCUCGAGCAA [U58G C80A], the nonsense suppression was not above 0.026.
The figure for CUCUCGGUAGCCAAUUUGGUUUAAGGCGCAAGACUUUAAUUUAUCACUACGAAAUCUUGAGACCGGGCGUUCGACUCGCCCCCGGGAGAUUUUUUCCUCGAGCAA [G15U U63C] is not above 0.026; for UUCUCGGUAGCCAAGUUGGUUUAAGGCGCAAGGCUUUAAUUUAUCACUACGAAAUCCUGAGGUCGGGCGUUCGACUCGCCCCCGGGAGAUUUUUUCCUCGAGCAA [C1U A33G U57C A62G] it is not above 0.026; for CUCUCGGUAGCUAAGUUGGUUCAAGGCGCAAGACUUUAAUUUAUCACUACGAAAUCUUGAGAUCGGACGUUCGACUCGCCCCCGGGAGAUUUUUUCCUCGAGCAA [C12U U22C G67A] it is not above 0.026.
For CUCUCGGUCGCUAAGUUGGUUUCAGGCGCAAGACUUUAAUUUAUCACUACGAAAUCUUGAGAUCGGGCGUUCGACUCGCCCCCGGGUGAUUUUUUCCUCGAGCAA [A9C C12U A23C A87U] the value was not above 0.026; for CUCUCGGUAGCCAAGUUGGUUUAAGGCGCAAGACUUUAAUUUAUCACUACGAAAUCAUGAGAUCGGGCGUUCGACUCGCCCCCGGAAGAUUUUUUCCUCGAGCAA [U57A G86A], not above 0.026; for CUCUCGGUAACCAAGUUGGUUUAAGGCGCAAGACUUUAAUUUAUCACUACGAAAUCUUGGGAUCGGGCGUUCGACUCGCCCUCGGGAGAUUUUUUCCUCGAGCAA [G10A A60G C82U], not above 0.026.
As for CUCUCGGUAGCGAAGUUGGUUUAAGGUGCAAGACUUUAAUUUAUCACUACGAAAUCUUGAGAUCGGGCGUUCGACUCGCCCCCGGGAGAUUUUUUCCUCGAGCAA [C12G C27U], the nonsense suppression is not above 0.026.
As to CUCUCGGUAGCCAAGUUGGUUUAAGGCGUAAGACUUUAAUUUAUCACUACGAAAUCUGGAGAUCGGGCGUUCGACUCGCCCCCGGGAGAUUUUUUCCUCGAGCAA [C29U U58G], the nonsense suppression is not above 0.026.
For CUCUCGGUAGCCAAGUUCGUUUAAGGCGCAAGCCUUUAAUUUAUCACUACGAAAUCUUGAGAUCGGGCGUUCGACUCGCCCCCGGGAGAUUUUUUCCUCGAGCAA [G18C A33C] the value was not above 0.026; for CUCUCGGUAGCCAAGUUGGUUUAAGGCGCAAUACUUUAAUUUAUCACUACGAAAUCUUGCGAUCGGGCGUUCGACUCGCCCCCGGGAGAUUUUUUCCUCGAGCAA [G32U A60C], not above 0.026.
CUCUCGGUAGCCAAGUUGGUUUCCGGCGCAAGACUUUAAUUUAUCACUACGAAAUCUUGAGAUCGGGCGUUCGACUCGCCCCCGGGAGAUUUUUUCCUCGAGCAA [A23C A24C]: the nonsense suppression is not above 0.026.
As to CUCUCGGUAGCCAAGUUGGUUUAAGGCGCAAGACUUUAAUUUAUCACUACGAAAUAUUGAAAUCGGGCGUUCGACUCGCCCCCGGGAGAUUUUUUCCUCGAGCAA [C56A G61A], the nonsense suppression is not above 0.026.
For CACUCGGUAGCCAAGUUGGUUUAAGGCGCAAGACUUUAAUUUAUCACUACGAAAUCUGGAGAUCGGGCGUACGACUCGCCCCCGGGAAAUUUUUUCCUCGAGCAA [U2A U58G U71A G88A] the value was not above 0.026; for CUCUCGGUAGCCAAGUUGGUUUAAGGCGCAAGACUUUAAUUUAUCACUACGAAAUCUUGAGAUCGGGCGUUCGACUCGACACCGGGAGAUUUUUUCCUCGAGCAA [C79A C81A], not above 0.026; for CUCUCGGUCGCCUAGUUGGUUUAAGGCGCAAGACUUUAAUUUAUCACUACGAAAUCUUGUGAUCGGGCGUUCGACUCGCCCCCGGGAGAUUUUUUCCUCGAGCAA [A9C A13U A60U], 1.16.
Turning to CUCUCGAUAGCCAAGUUGGUUUAAAGCGCAAGACUUUAAUUUAUCACUACGAAAUCUUGAGACCGGGCGUUCGACUCGCCCCCGGGAGAUUUUUUCCUCGAGCAA [G7A G25A U63C], the nonsense suppression was not above 0.026.
As for CUCUCGGUAGCCAAGUUGUUUUAAGGCGCAAGACUUUAAUUUAUCACUACGAAAUCUUGAGAUCGGGCGUGCGACUCGCCCCCGGGAGAUUUUUUCCUCGAGCAA [G19U U71G], the nonsense suppression is not above 0.026.
For the variant CUCUCGGUAGCCCAGUUAGUUUAAGGCGCCAGACUUUAAUUUAUCACUACGAAAUAUUGAGAUCGGGCGUUAGACUCACCCCCGGGAGAUUUUUUCCUCGAGCAA [A13C G18A A30C C56A C72A G78A], the nonsense suppression is not above 0.026.
Take CUCUCGGUAGCCAAGUUGGUUUAAGGCGCAAGACUUUAAUUUAUCACUACGAAAUCUUGGAAUCGGGCGUUAGACUCGCCCCCGGGAGAUUUUUUCCUCGAGCAA [A60G G61A C72A]: the nonsense suppression was not above 0.026.
For CUCUCGGUAGCCGAGUUGGUUUAAGGCGCAAGACUUUAAUUUAUCACUACGAAAUCUUGAGAUCUGCCGUUCGACUCGCCUCCGGGAGAUUUUUUCCUCGAGCAA [A13G G65U G67C C81U] the value was not above 0.026; for CUCUCGGUAGCCAAAUUGGUUUAAGGCGCAAGACUUUAAUUUAUCACUACGAAAUCCUCAGAUCGGGCGUUCGACUCACCCCCGGGAGAUUUUUUCCUCGAGCAA [G15A U57C G59C G78A], not above 0.026; for CUCUCGGUAGCCAAGUUGGUUUAAGGCGCAAGACUUUAAUUUAUCACUACGAAAUCUUGAGACCGGGCGUUCGACUCGCCGCAGGGACAUUUUUUCCUCGAGCAA [U63C C81G C83A G88C], not above 0.026.
In the case of CUCUCGGUAGCCAAGUUGGUUUAAGGUGCAAGACUUUAAUUUAUCACUACGAAUUCUUGCGAUCGAGCGUUCGACUCGCCCCCGGGAGAUUUUUUCCUCGAGCAA [C27U A54U A60C G66A], the nonsense suppression was not above 0.026.
The figure for CUCUCGGCAGCCAAGUUGGUUUAGGGCGCAAGACUUUAAUUUAUCACUACGAAAUCUUGACAUCGGGCGUUCGACGCGCUCCCGGGAGAUUUUUUCCUCGAGCAA [U8C A24G G61C U76G C80U] is not above 0.026.
